# Reference: a collection of fitness landscapes (doi:10.1016/j.celrep.2020.107928)
# In all, about 81,000 sequences were measured (“one-hybrid fitness for binding parS DNA”: median about -0.17, highest 2% from about 0.51 on). This is one part of the list.
# B1: Caulobacter ParB omega fusion; a variant is named by its letters at X, in order, B8GW30 (parent)
# chain: MESVVVGEPGMSEGRRGLGRGLSALLGEVDAAPAQAPGEQLGGSREAPIEILQRNPDQPRRTFREEDLEDLSNSIREKGVLQPILVRPSPDTAGEYQIVAGERAWRAAQRAGLKTVPIMVRELDDLAVLEIGIIENVQRADLNVLEEALSYKVLMEKFERTQENIAQTIGKSXSHVANXMRLLXLPDEVQSYLVSGELTAXHARAIAAAADPVALAKQIIEGGLSVRETEALARKAPNLSAGKSKGGRPPRVKDTDTQALESDLSSVLGLDVSIDHRGSTGTLTITYATLEQLDDLCNRLTRGI
# Variants of: B1
# Assay: one-hybrid fitness for binding parS DNA (scaled: cognate 1, non-cognate 0); higher = stronger binding
# Details: with parS DNA site
# How it was run: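 Values were rescaled so that cognate is 1 and non-cognate is 0. Each is a fitness, the log change in a variant's read ratio to wild type from Illumina reads of plasmids before and after selection, with three replicate libraries pooled and variants under 10 reads dropped. Selection of the Caulobacter ParB libraries, four specificity codons randomised, used E. coli USO with a HIS3 reporter, site 19 bp from the promoter, on M9-minus-histidine with 0.1 mM IPTG and 5 mM 3-AT for 48 hours at 37°C.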
row,Variant,one-hybrid fitness for binding parS DNA
1,VAAI,≤ 0.2
2,KMRV,≤ 0.2
3,NVRA,≤ 0.2
4,DGPL,≤ 0.2
5,VPPY,≤ 0.2
6,WVQL,≤ 0.2
7,PLLY,≤ 0.2
8,MEAY,≤ 0.2
9,TTMQ,≤ 0.2
10,TSYR,≤ 0.2
11,RDGK,≤ 0.2
12,TEQY,≤ 0.2
13,WMRR,≤ 0.2
14,DPNT,≤ 0.2
15,RAWF,0.245
16,RRLS,0.701
17,CVPF,≤ 0.2
18,VSLI,≤ 0.2
19,INNL,≤ 0.2
20,WDKG,≤ 0.2
21,NFKT,≤ 0.2
22,LLSG,≤ 0.2
23,AIAV,≤ 0.2
24,CEMR,≤ 0.2
25,TFYV,≤ 0.2
26,RVKL,≤ 0.2

row,Variant,one-hybrid fitness for binding parS DNA
1,AWQR,≤ 0.2
2,FVQV,≤ 0.2
3,NEFY,≤ 0.2
4,KANV,≤ 0.2
5,MFRY,≤ 0.2
6,RIIW,0.206
7,RHDN,0.33
8,NHCR,≤ 0.2
9,GHLY,≤ 0.2
10,AQKW,≤ 0.2
11,QYSW,≤ 0.2
12,PLSK,≤ 0.2
13,MPVC,≤ 0.2
14,RCTI,≤ 0.2
15,LAQK,≤ 0.2
16,GRHS,≤ 0.2
17,LVRL,≤ 0.2
18,FAPL,≤ 0.2
19,ANMG,≤ 0.2
20,FQAL,≤ 0.2
21,TQQM,≤ 0.2
22,VNYL,≤ 0.2
23,QRLH,≤ 0.2
24,WHPD,≤ 0.2
25,EEDR,≤ 0.2
26,TSQL,≤ 0.2

row,Variant,one-hybrid fitness for binding parS DNA
1,SNEF,≤ 0.2
2,CNVC,≤ 0.2
3,CTIF,≤ 0.2
4,YRVR,≤ 0.2
5,RGLD,≤ 0.2
6,HRIL,≤ 0.2
7,KPWG,≤ 0.2
8,FLGR,≤ 0.2
9,LRVI,≤ 0.2
10,LFPL,≤ 0.2
11,AGFT,≤ 0.2
12,YGKR,≤ 0.2
13,PYRA,≤ 0.2
14,LMAA,≤ 0.2
15,GETW,≤ 0.2
16,PRQL,≤ 0.2
17,KIIG,≤ 0.2
18,RSLS,1.01
19,YMLC,≤ 0.2
20,TTCV,≤ 0.2
21,GCMT,≤ 0.2
22,NTWS,≤ 0.2
23,RACC,0.962
24,GGLR,≤ 0.2
25,AMTY,≤ 0.2
26,KEEV,≤ 0.2

row,Variant,one-hybrid fitness for binding parS DNA
1,SAEF,≤ 0.2
2,FNAC,≤ 0.2
3,ARDS,≤ 0.2
4,DHPV,≤ 0.2
5,RFPT,0.376
6,KMKK,≤ 0.2
7,TCFD,≤ 0.2
8,RNMA,0.47
9,DLYF,≤ 0.2
10,KHTS,≤ 0.2
11,DSQT,≤ 0.2
12,CEYR,≤ 0.2
13,VNFG,≤ 0.2
14,PPYV,≤ 0.2
15,LWPI,≤ 0.2
16,HNML,≤ 0.2
17,PRKP,≤ 0.2
18,HKNR,≤ 0.2
19,PVFL,≤ 0.2
20,FNHS,≤ 0.2
21,EHAS,≤ 0.2
22,RIGV,≤ 0.2
23,WVKR,≤ 0.2
24,NCQS,≤ 0.2
25,TNEW,≤ 0.2
26,GMNG,≤ 0.2

row,Variant,one-hybrid fitness for binding parS DNA
1,FRPF,≤ 0.2
2,RRIY,0.332
3,LICE,≤ 0.2
4,QERI,≤ 0.2
5,QTED,≤ 0.2
6,QRHG,≤ 0.2
7,SPYV,≤ 0.2
8,FRPT,≤ 0.2
9,QSCN,≤ 0.2
10,RVGE,≤ 0.2
11,RWKL,≤ 0.2
12,CQRS,≤ 0.2
13,HNTG,≤ 0.2
14,WDSS,≤ 0.2
15,DVHV,≤ 0.2
16,RMDT,0.794
17,QKLM,≤ 0.2
18,ETLL,≤ 0.2
19,RWSR,≤ 0.2
20,SVPD,≤ 0.2
21,WDTG,≤ 0.2
22,CTFF,≤ 0.2
23,TLGV,≤ 0.2
24,LQWY,≤ 0.2
25,IAMC,≤ 0.2
26,NTFC,≤ 0.2

row,Variant,one-hybrid fitness for binding parS DNA
1,RTWP,0.271
2,RMHG,1.01
3,IPHS,≤ 0.2
4,TTKC,≤ 0.2
5,FTQS,≤ 0.2
6,KYPC,≤ 0.2
7,SLLT,≤ 0.2
8,DIRS,≤ 0.2
9,YAGC,≤ 0.2
10,ADRG,≤ 0.2
11,RYRR,≤ 0.2
12,EECG,≤ 0.2
13,GVMC,≤ 0.2
14,YFDV,≤ 0.2
15,RFMF,0.245
16,RLEF,0.247
17,VVLT,≤ 0.2
18,VNKH,≤ 0.2
19,GANR,≤ 0.2
20,YFDT,≤ 0.2
21,DRTY,≤ 0.2
22,AYNP,≤ 0.2
23,HGFD,≤ 0.2
